The assay addresses T1, JAK3: Recombinant human kinase domain (Homo sapiens, UniProt P52333).
T1 construct: JAK3: Recombinant human kinase domain from Millipore (Cat #14-629) or prepared; purchased Millipore 14-629
In words: Determination of IC50 of Janus Kinase (JAK) inhibition, radioactive end-point 33P-ATP assay, JAK3. The note with it: ATP 1.5 uM, peptide 50 uM, 20 minutes, read-out: JAK3-INHIB-DR/v1~NO ADDITIVE~Enzyme_Conc = 100. The assay is classed as biochemical.

Molecules are shown by their SMILES. Certain results were filed several times, with different values. The list is limited to them. There may be further records. The records of an entry read as repeated measurements on other runs, samples or individuals; one of them may be the mean. Marks such as (2×) stand for listed records that agree.

T1 sequence (P52333 822-1111 limits assumed): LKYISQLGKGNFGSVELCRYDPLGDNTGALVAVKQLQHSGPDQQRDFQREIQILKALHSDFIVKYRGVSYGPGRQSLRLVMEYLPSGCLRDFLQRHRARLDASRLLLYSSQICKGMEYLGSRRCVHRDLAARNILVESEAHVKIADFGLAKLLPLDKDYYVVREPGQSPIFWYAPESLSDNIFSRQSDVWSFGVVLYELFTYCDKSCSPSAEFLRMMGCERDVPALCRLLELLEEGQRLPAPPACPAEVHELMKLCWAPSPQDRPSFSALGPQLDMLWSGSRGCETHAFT

For the molecule `COCC(COC)NC(=O)c1c[nH]c2ncc(-c3nn(C)c4cc(Cl)ccc34)nc12` [Example I-166, 2-(6-Chloro-1-methyl-1H-indazol-3-yl)-5H-pyrrolo[2,3-b]pyrazine-7-carboxylic acid (2-methoxy-1-methoxymethyl-ethyl)-amide], the IC50 was 12.6 nM, > 1 µM (2×), 12 nM [lines of one column].

(Values after patent US8658646B2, “Pyrrolopyrazine kinase inhibitors” (Hoffmann-LaRoche Inc., priority 2011, dated 2014).)
